According to the supplement of paper PMC11417369:
Some of the results follow.

Each sequence was assayed on PfHDP1 homeodomain (GST-tagged) (assay: gcPBM binding intensity (ln(normalized median fluorescence intensity)); higher = stronger DNA binding).
Summary of the method: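 GST-tagged P. falciparum DNA-binding domains produced in E. coli were incubated for 1 h on an Agilent 4 × 180k array of primer-extended double-stranded 36-bp intergenic genomic probes with negative controls. Binding intensity is the highest Masliner-normalised natural-log median intensity across replicate spots of either probe orientation, with bound protein detected by Alexa488 anti-GST antibody at 488 nm.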

Sequence	gcPBM binding intensity (ln)
GTTGGTAGGCGGTACGGTACACGTAAAGTTTTTCTT [XGTACX_site7706]	6.2
ACCATATAAATAAACACACACACACGGATATAAATA [CACACA_site7157]	6.98
TACATACATACATACACACATACATATGTATATATA [CACACA_site2480]	7.37
TAATGCCATAATACGTGTACTTAATATATTAGAACA [XGTACX_site5809]	6.48
CTCAAATGTTATTGTAGTACCTAAAAAATATATTCT [XGTACX_site1970]	6.11
ATATGTATTAAGTGTACACATATAATCTATCTTGTT [CACACA_site5329]	6.91
CCCACTAAAAAACACACACACACACCCATATATATA [CACACA_site6140]	6.96
TTTTTTTTATATAGTAGTACTAATTAGAATTTTTAT [XGTACX_site7476]	6.23
TATATGTTTTATAGTACACACATAAATGGACATACT [CACACA_site2191]	6.48
TGAATTTAGATATATACACACAAAAGTATATACAAT [CACACA_site2804]	6.36
TGTACATATATATATATAATAATAGTTATGTTTATT [CACACA_negctrl_site1474]	6.61
TTTTTTTATAGCTAAACACACATAAGAATATATGTT [CACACA_site1099]	6.84
ATTATTACACAACGTTGTACATTTCAATATTTTTAT [XGTACX_site5096]	7.3
AAAATAATATATAATTGTACTTTTTTTTTATATATA [XGTACX_site6093]	6.1
TTTCTTTTTTTTTAATGTACTTTTTTTATAAAAGGT [XGTACX_site5688]	6.56
TTTTTTCTTAAAATTTGTACATAGTGCAATTTTTTT [XGTACX_site5509]	9.45
TCCTCTTCAATATATATATATTATAAATAAATAAAT [CACACA_negctrl_site1756]	6.62
TATTTTTTATATTTATTTATTTAAAGGAGCTTTTCT [GTGCAC_negctrl_site293]	6.15
TATAAGAATGACAAGTGTACATATCAAATATATTAG [XGTACX_site7113]	6.36
TATACTAAAAAATACACATGCACATACAATATATAT [TGCATGCA_site1016]	8.36
ACATACTTTAATATATGTACATAAGAAAAAAAAAAA [XGTACX_site2991]	6.53
AATATAAATTAATTTACACACTAAAAAATATTTATA [CACACA_site7728]	6.41
AAGTTGTATATTGATTGTACTTGTTTAGGGTTATAG [XGTACX_site2953]	6.57

Sequence	gcPBM binding intensity (ln)
ATATATATAATAAACACACACATATACATATATGTA [CACACA_site3462]	6.97
AGGTAAAATATACATTGTACATATAATTAATTTATT [XGTACX_site626]	6.25
TATATATATATAATGTGTACACAAATATATATTATA [XGTACX_site8786]	8.93
AAATTTATATAATATTGTACATTAAAAATTATATAT [XGTACX_site8009]	6.21
AGTATATATACACAAGGGGAATACATATACAAAATT [TGCATGCA_negctrl_site244]	6.77
TGGGTAATACATAATACACACATGTATATGTCGCAT [CACACA_site1125]	6.51
TATGTATAAATATATGCACACATATATATATTTATA [CACACA_site9150]	9.35
TTTTTAAAAAAGATAAGCGAAAGAATTAATTTTTAA [GTGCAC_negctrl_site197]	6.41
TTTGAATTTTTTAACACACACATGTGTGGATATATA [CACACA_site6872]	6.6
TATTAACACTTTATAGAAACAAAAAAATAAGCAAAA [XGTACX_negctrl_site295]	6.79
CTCAATATATTTGATTTACACACTTACAATGTATAT [CACACA_site8982]	6.78
TATTAAAGATACTCGGTATAAATAAATTTTAATGTG [XGTACX_negctrl_site239]	6.35
AAGTGGCATATAAGTAAAAAATATATACAAGTATAT [GTGCAC_negctrl_site427]	6.25
TATAAAAAATATAATTGTACATAAAGGTTAAAATGT [XGTACX_site6138]	6.9
TTATTTCTACCTTTTTGTACACATTATTATGAAACC [XGTACX_site5325]	7.46
ATGCTTATTATTTATTGTACTGAATAAATATATCTG [XGTACX_site4483]	6.46
ACAACATGCACACGCACACACAAAAAAAGCATGCAT [CACACA_site6185]	9.78
ATAAATCATAAGGAGAGTACATAAATAAAATAATCA [XGTACX_site8825]	6.6
TACAATACCGTACAGGTGCAACTAGCCAAAAAAAAG	10.3
TAAATTAATAAAAAGTGTACATAATATACATATATA [XGTACX_site8604]	6.75
TTTAATAATATTTAGGTGCTATATATTATATGTATA	6.33
CGTATGACATAATATTGTACTTTTGATATACATCAT [XGTACX_site7366]	6.3
ATAATTAAAAAAGGAATATATATATATATATATATA [GTGCAC_negctrl_site343]	9.48

Sequence	gcPBM binding intensity (ln)
AAACAAAAAAGAAACACACACTAATTAAATTTTCTT [CACACA_site4746]	6.33
TATATTTTTTTTCTAGTGCATATTATTAATTAAGTT	8.71
TGAGTATTTTTTTAATGTACTTATATTAAAAGGAAA [XGTACX_site6286]	6.32
AAAATATTATTTTGTTGTACATATAAAATTTTAAGC [XGTACX_site1866]	6.78
TACAAAATAAGACATGCATGTTATACATATATATTT [TGCATGCA_site321]	6.84
TTTATTTTGTAGTGTACACATATATATATATATATA [CACACA_site5843]	9.42
TATATATGGAAAAGGTGTACATTCAATATATATATA [XGTACX_site3167]	8.63
TATGTCAAAAAATAATGTACAAAAAAATTAACATAA [XGTACX_site5463]	6.38
ATATAAAATAGACACGCACACAAAAAAAAAAAAAAA [CACACA_site3522]	6.55
CTATAATATAGGTATACACACATATTATAGAATATT [CACACA_site7696]	6.2
ATTTTAGAATTTAATACACACAAAAAAAAAAAATTA [CACACA_site3704]	6.45
TATTACATTATATAAACATGCAAAACTATATATTAT [TGCATGCA_site601]	6.7
AAAAATTTATTTAAAAGTACATAAAATAAAGGTGGA [XGTACX_site7591]	7.21
ACTTTAGAAATAGAGGTGCTATTTTTATTACCACAC	6.54
ATATATGTAGATATATGTACATATATAGGTAGATAT [XGTACX_site7589]	7.39
TTTATTAAAATATTCTCACACACCAAAATATGTATG [CACACA_site932]	6.42
ATAAAATAACACAACGTTGACAAATTTGGATGACTC [XGTACX_negctrl_site324]	7.16
AAAATAATAAAAAGGGGTACAAAGAAACAAATATAA [XGTACX_site296]	6.69
AAGGAAAAGTAAAGAAGTACTGTACCGCCAAAAAAA [XGTACX_site2607]	6.71
TTGATGTTGGTAGGATGTACGGTACCGGTAGTATTT [XGTACX_site6642]	6.62
AATTTATTTTTTTGATGTACATACAATTTATCACAA [XGTACX_site5936]	6.74
TATGTGCATATAAACTCACACATTGTATATTACATG [CACACA_site6106]	10.9
TATATAATTGTCTTCACACACACATATATATATATA [CACACA_site2744]	9.37

Sequence	gcPBM binding intensity (ln)
AAGAATATTATAAACACACACTTTATAAAGAATTAT [CACACA_site4241]	6.5
TATTTTATTTGTATATTCATTTGTATAATATAAATA [TGCATGCA_negctrl_site267]	6.18
AAAAAAAAAAAAAAAACACACATAAAAATATAATAA [CACACA_site3855]	6.52
ATTATATATAATATAGTGCATGTAAAAAATAAAACA	8.17
TATACACATATATACACACACATATATAAATAAATA [CACACA_site7579]	7.09
TGCACAAAGTTATGCACACACCTAAAATTAATTTTT [CACACA_site7385]	10.5
ATTCTTTATATGCATACACACCTAATATAGGGACCT [CACACA_site6830]	7.78
GTACATAGGTATAGCACACACAAATGTAGGTATTTT [CACACA_site4049]	6.53
TTATAATATGTATACACACACATATATAGATATATA [CACACA_site7159]	6.81
AAATGTAATATAAATAGTACATATTAAATAAAATTA [XGTACX_site6917]	5.99
ATGTGCACATATAAAAGTACACGCACATATATATAT [XGTACX_site1238]	11
TCTATTTTTTATATGGTGCATTGTTCTTATTAATAT [GTGCAC_site9392]	9.61
CTTTATTTTTTATACACACACAATATGTATTTATAT [CACACA_site5879]	7.34
AGGAAAAATAATTATTCACACAATAAATATATTTGA [CACACA_site5824]	6.34
AATTAATTTATGTTACGTACATAAGTATTATATTTT [XGTACX_site388]	6.42
GTTCAAATTATTATGTGTACTAAAGAATATTTTAAA [XGTACX_site3166]	6.43
AAATCGTGCACGGACACATGCAGTAGCCGAGAATTA [TGCATGCA_site733]	11.1
GATGTATTCATACATGCACACGTACATATTTAAATA [CACACA_site9299]	8.03
TAAACCAAAAAAAGTAGTACAAATATTATAAAAAAA [XGTACX_site8497]	6.38
TATTTTAATTTTTGTTGTACGCAAATGTGAGGGCAT [XGTACX_site4663]	6.73
